Assay results taken from the supplement of paper PMC3334620.
In all, about 33,000 sequences were measured (“E-score (-0.5 to 0.5)”: median about -0.017, highest 2% from about 0.3 on). The list shows a part of the results.

molecular target: T1, Sut1 (UniProt P53032); assay: PBM E-score (8-mer binding enrichment) (E-score (-0.5 to 0.5)); higher = stronger / more preferred TF binding; most listed sequences are background and not binding sites; conditions: protein concentration: 200 nM; construct: GST-full length
T1 sequence: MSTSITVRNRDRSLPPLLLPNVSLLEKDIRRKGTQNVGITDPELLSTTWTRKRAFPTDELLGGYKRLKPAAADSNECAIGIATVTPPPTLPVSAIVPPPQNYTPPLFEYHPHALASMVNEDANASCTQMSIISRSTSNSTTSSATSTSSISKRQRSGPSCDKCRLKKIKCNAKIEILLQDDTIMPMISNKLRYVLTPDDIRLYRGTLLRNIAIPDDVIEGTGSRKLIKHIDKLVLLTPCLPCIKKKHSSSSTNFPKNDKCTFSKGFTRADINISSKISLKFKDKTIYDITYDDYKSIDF
Method in brief: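 Universal all-10-mer Agilent arrays, double-stranded by primer extension on fresh or once-stripped slides, were probed with about 100-200 nM GST-tagged yeast transcription factors made by PURExpress. Fluorescent anti-GST detected bound protein, and masliner normalised the scans. E-scores from the Universal PBM Analysis Suite were given to each ungapped eight-base word pooled with its reverse complement.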

Sequence | PBM E-score
CAGGACCG | -0.131
AAAGATAA | 0.207
CGGGCGGA | 0.0269
GGCCTTAC | -0.0765
CTTATCAC | -0.137
GGATGCGA | -0.222
ATTCCATC | 0.27
ACCCTATA | -0.0833
AGGAAACT | -0.0246
ATGATAGC | 0.0815
AAGAATTA | 0.187
AAAGCCCA | 0.118
GAAAGTCA | 0.049
ACCCGGAA | 0.197
CAAAATTC | 0.308
CTGAAGGC | -0.271
GTCTAGAA | 0.0897
TATTTAGA | 0.153
CATCCCCG | 0.0938
ATCTGGTC | -0.139
GACAAACA | -0.00941
TGATGCAA | -0.0323
AATGCACT | 0.141
CCATTGTA | 0.114
TACAAGCA | 0.137

Sequence | PBM E-score
TGCCGACA | 0.0327
CCCGAAAC | 0.0905
ACGTATAT | 0.1
AACGCGAC | -0.26
ATTACCTC | 0.0885
AATTAACG | 0.182
GCGTTAGA | -0.104
ATGCAAAG | 0.0945
GGGCTTCA | -0.272
CAAACGCG | 0.109
ATAGTCAG | -0.0499
GCACCAGA | -0.2
CCGCTTTC | 0.0502
AGCCGCAA | -0.256
CGACCTCG | -0.00301
ACAATAAT | 0.197
ACTGAAGC | -0.0682
CACTCCTG | -0.0764
TCACGAGA | -0.0654
GTAAACAA | 0.273
CGCCATCC | -0.18
ATAGCTCC | 0.0632
CAAAAGTC | 0.191
CACTCCAA | 0.0306
ATGGGAAA | 0.0371

Sequence | PBM E-score
GTGTCTTA | -0.0906
ACCATAGT | 0.029
GCTATACA | 0.0896
GCGTAATA | 0.0496
GACTCGGC | -0.033
AGTACGCG | -0.00947
GAATAGTC | 0.0449
TATCCCCA | -0.114
CTTTCTTA | 0.14
AAGATCCA | 0.0401
GTTCAATA | 0.206
CTTCCGGA | 0.347
AACCTCTG | -0.171
AACAAGTA | 0.0236
CCCTCCCA | -0.0718
ATGGTATA | 0.144
GGAAAGAA | 0.21
TGGCGCCA | -0.283
ACTGGGTC | -0.178
CCTGGGAC | -0.394
CGGGGTCA | 0.0587
TGCGCCAA | -0.0704
CCCCTTAC | -0.196
AGTATACG | 0.0431
AATTTACA | 0.11

Sequence | PBM E-score
ATAACATC | 0.146
CAATAGCA | 0.0114
ACTACGCC | -0.156
GCTTACGA | -0.148
ATTCTAAC | 0.0886
GTAATAGA | 0.101
CGTCTCAA | -0.0774
AAAGAAAA | 0.26
AAATAAAA | 0.234
AGCCAGTA | -0.0522
ACATTCAG | -0.0953
TAGATATA | 0.24
CTTACCAC | -0.122
AATACAAC | 0.224
AATAACCA | 0.078
GAGGAATC | -0.0293
ATGATTAC | 0.134
CGCACGGC | -0.201
ATATAAAC | 0.227
GGGTTTAA | 0.0821
AGTCGGCC | 0.041
TCGGGCAA | -0.0147
GTTGCGAA | 0.0959
GTCGGTAA | 0.0048
AGACAGCG | -0.0861

Sequence | PBM E-score
TACAGCTA | -0.185
CGACTTGC | -0.194
ACGCAAAT | 0.0352
GTGAGGAA | 0.0112
ACAATGAT | 0.108
CGTGAAAC | 0.0681
GACATTAA | 0.159
CCCCACGA | -0.201
CATGAGGA | -0.0148
TCCACGAA | 0.0544
AGCTCCTC | -0.098
CCGTGCCC | -0.0573
ATGTTGAA | 0.131
AGTTTCAA | 0.0369
CTCAATGC | -0.0534
AACGATGC | -0.0717
AAACGAGT | 0.133
CCCCTCCA | -0.258
CTATAACA | 0.0773
ACGATGGG | -0.221
AGATTCCC | -0.208
AACTGCTC | -0.0543
CCTGGGGC | -0.334
ACATGAAT | 0.109
CGCTCTCC | 0.0191

Sequence | PBM E-score
CATCTGCC | 0.00624
CATTTCAC | 0.0596
TAATCAGA | 0.148
GCCCTCAC | -0.308
CTCCGCAC | 0.306
CCAGTCCG | 0.222
CCATTATC | 0.00681
ACGCGCCC | -0.19
GTTGGCTA | -0.0553
AACAGATC | 0.163
GGGTTACC | -0.268
GCTGCTAA | -0.0153
AATACAGG | 0.0674
CGTGCAAC | 0.0561
GTCTTAGA | -0.0371
ATAGCCTA | -0.0327
ATAACGGA | 0.341
AGGCTTAT | -0.073
ACAACCCC | -0.0152
GATGGTAC | -0.0365
CAATTGTA | 0.0377
ATCAGATC | 0.0109
CGTGGATA | -0.0261
AACGAGTA | 0.0812
AGCACACT | 0.0854

Sequence | PBM E-score
ACGTTCAG | -0.347
GCGGTACA | 0.0293
ATCCAGTC | 0.0525
AAGCGGTC | -0.0841
AGACTACC | 0.0631
GCATAGCC | -0.156
ATCAAACC | 0.138
CTTCGCTC | -0.0339
CAGCTGGG | -0.178
GGTTAATA | 0.163
GAAATCCA | 0.115
CTGCCGTC | -0.218
ATTCCTCC | 0.0322
AAGTGATT | 0.237
CTGTTCGA | 0.064
GGGTGAAC | 0.0587
CTAACGAA | -0.0566
ATAGACCG | -0.0673
GACTTTTA | 0.203
CTGTTGCC | -0.176
GCAAAAGA | -0.0341
GTGTTTAA | 0.242
ACGATTAG | 0.085
ATAGCCCG | 0.0153
ATACGCGG | -0.00574

Sequence | PBM E-score
AGGGACTG | -0.308
AAGAACGG | 0.131
AGAAGGCC | -0.061
AAGTCATC | -0.0338
CGATTCTA | -0.0107
CTGCCAAA | -0.0297
CTACCGCC | -0.134
AGTCCACT | -0.112
AAGAAGGT | 0.0448
AAAAGTCC | 0.394
TGGAGGAA | -0.165
CGATAAGC | -0.07
AGATAGGG | -0.0447
AGACCAAG | 0.186
ACCGGTAC | -0.099
GAATGCAA | 0.0823
GAAAATGA | 0.183
AATAATGA | 0.203
ATGCGAAT | 0.147
ACGGGCAC | -0.249
AACGGATA | 0.285
CCAGTCAA | -0.0619
AACCTTAT | -0.0449
AATAGATC | 0.0781
CGCGAGGC | -0.026

Sequence | PBM E-score
CCTTAGCC | -0.153
TCTAAAGA | 0.0807
GGCCACCA | -0.115
CGTCCATA | -0.0391
GCGGTATA | -0.0696
CGGAATTA | 0.349
AGAGCAAG | -0.0629
ACACGAGT | -0.0151
GTGGCTAA | 0.0437
GGTACTAA | 0.0592
ACAATCGT | -0.13
CCAAGCGG | -0.272
ACGATCCC | -0.0453
CTATATAC | 0.287
CCAACAGG | -0.314
CCCGTTCA | -0.0788
ACCTGATA | 0.0775
TTGACAAA | 0.232
AAAGGGGG | -0.164
